SMILES strings stand for the structures. The whole screen tested about 340,000 compounds, of which about 6,900 (2%) were called active. Cut-off read from the data, not from the text of the source: active = inhibition above about 30%; inactive = below that, where a call was filed. This is a selection; strong and weak results do not stand in their true shares. Where no call is shown, the source filed none.

What is called inhibition is the relative decrease from the control value, in per cent.

UniProt P14416, sequence (P14416 whole entry, looked up): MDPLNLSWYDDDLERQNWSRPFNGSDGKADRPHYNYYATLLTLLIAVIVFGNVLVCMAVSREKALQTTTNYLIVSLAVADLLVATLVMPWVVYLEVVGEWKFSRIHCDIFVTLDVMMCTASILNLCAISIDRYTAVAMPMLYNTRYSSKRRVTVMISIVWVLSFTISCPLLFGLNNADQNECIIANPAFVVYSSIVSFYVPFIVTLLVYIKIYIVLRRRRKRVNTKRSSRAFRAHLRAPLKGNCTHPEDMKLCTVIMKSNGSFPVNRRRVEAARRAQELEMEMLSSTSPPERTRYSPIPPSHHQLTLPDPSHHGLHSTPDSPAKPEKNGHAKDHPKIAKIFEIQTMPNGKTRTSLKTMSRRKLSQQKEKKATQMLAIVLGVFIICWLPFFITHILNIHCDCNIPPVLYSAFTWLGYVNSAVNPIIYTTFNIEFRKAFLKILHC

For the assay, the target named is D(2) dopamine receptor (Homo sapiens) (UniProt P14416). The experiment in a line: HTS Assay for Allosteric Antagonists of the Human D2 Dopamine Receptor: Primary Screen for Antagonists. Note: 0% is about no effect. To be noted: HEK293 TREx D2 cells, calcium flux, dopamine EC80; at 10 µM; stronger effect = higher value. The method, boiled down:
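Dopamine at EC80 is the agonist stimulus; test compounds precede it by 180 s. Calcium flux read kinetically in a force-coupled, inducible HEK293 T-REx D2 cell line.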
A general note: Calcium flux is commonly read through the fluorescence of an indicator in the cells.
Take `COc1ccc(N(C(=O)COc2ccccc2OC)S(=O)(=O)c2ccc(Cl)cc2)cc1`: the inhibition is 6.78%. For the compound `Cc1noc(C)c1S(=O)(=O)N1CCCC(C(=O)Nc2ccc(C(C)C)cc2)C1` (stereo not given), the inhibition amounted to 5.47%. Consider `CCc1ccccc1NC(=O)Nc1cc(C(=O)NCc2ccc(OC)cc2)ccc1N1CCCC1`, for which the inhibition was determined as 7.82%. Next, `O=C(c1ccccc1)n1nc(-c2ccco2)nc1NCc1ccccc1Cl`: 4.33%. With `Cc1c(-c2ccc(Cl)cc2)c(=O)oc2c(CN3CCCC3)c(O)ccc12` the figure was 7.6%; with `COc1ccc(N2CC(NC(=O)c3ccc(OC(C)C)cc3)CC2=O)cc1` (stereo not given), 13.7%; with `OCCNCc1cc(Br)ccc1OCc1ccccc1Cl`, active: 41.8%. Next, `COc1ccccc1CNC(=O)CN1C(=O)CCn2nc(-c3ccccc3)cc21`: 1.93%; `COc1ccc(-c2nc3sc(CCNS(=O)(=O)c4ccc(F)c(C)c4)c(C)n3n2)cc1`: -28.4%. For `Cc1ccc(OCC(=O)Nc2ccc3nc(Nc4cccc(Cl)c4)cc(C)c3c2)cc1`, the inhibition was -10.4%. Next, `CCCNC(=O)Cn1nc(-c2ccc(C)c(C)c2)c2cnc3ccc(F)cc3c21`: 9.11%.

In the case of `Cc1ccc(C)c(CN2C(=O)CSc3ccc(C(=O)NCCc4ccc(Cl)cc4)cc32)c1`, the inhibition was 2.15%. Next, `Clc1ccc(CNc2cc(-c3ccccc3)nc3nncn23)cc1`: 24.1%; `O=C(Nc1cccc(C(F)(F)F)c1)Nc1nnc(N2CCCCC2)s1`: 12.2%; `COc1ccc(S(=O)(=O)Nc2cccc(-c3ccc(N4CCCC4)nn3)c2)cc1OC`: 12.3%. With `N#Cc1c(Nc2cccc(F)c2)sc(C(=O)c2ccc(Cl)cc2)c1N` the figure was 9.33%; with `CCN(c1ccccc1)S(=O)(=O)c1ccc2[nH]cc(C(=O)NCc3ccc(C)cc3)c(=O)c2c1`, 5.02%. With `COc1ccc(/C=C/c2nc3ccccc3c(=O)n2-c2cccc(C(F)(F)F)c2)cc1` the figure was 25.1%; with `CN(CC(=O)NCCN1CCN(c2ccccc2)CC1)S(=O)(=O)c1ccc2c(c1)CCC(=O)N2`, active: 74.6%; with `Cc1ccc(CN(C(=O)COc2ccc(Cl)cc2Cl)C2CCS(=O)(=O)C2)o1` (stereo not given), 9.51%.

For the compound `Cc1[nH]c(=O)[nH]c(=O)c1S(=O)(=O)N1CCN(c2cccc(Cl)c2)CC1`, the inhibition is 1.41%.

For the compound `CCN(CC)c1ccc(NC(=O)c2cc3c(=O)n4cccc(C)c4nc3n2C)c(C)c1`, the inhibition is -25%.

Consider `O=C(CSC1=Nc2ccccc2N=C(c2ccc(F)cc2)C1)NCc1ccc(Cl)cc1`, for which the inhibition was determined as 9.5%. With `Cc1cc(S(=O)(=O)NCC(c2ccc(N(C)C)cc2)N2CCOCC2)ccc1F` (stereo not given) the figure was -3.18%; with `CC(=O)c1ccc(NC(=O)c2nc3ccccc3n(C)c2=O)cc1`, 11.6%; with `CCCCCNC(=O)CCn1c(=O)[nH]c2ccccc2c1=O`, 1.51%. As to `COc1ccc(CNC(=O)C(=O)NCC(c2ccco2)S(=O)(=O)c2ccc(C)cc2)cc1` (stereo not given), the inhibition was -8.01%.

`CCc1ccccc1OCCSc1nnc(-c2cc(OC)c(OC)c(OC)c2)o1`: the inhibition is -1.17%.

Take `COc1cc2nc(Nc3ccc(F)cc3)nc(N)c2cc1OC`: the inhibition was -21.7%.

For `COC(=O)c1ccc(Cn2nnc3sc4c(c3c2=O)CCCC4)cc1`, the inhibition was -0.701%. As to `CCOC(=O)c1cccc(NC(=O)C(Cc2ccccc2)NS(=O)(=O)c2cccc3nsnc23)c1` (stereo not given), the inhibition stood at 1.88%. Next, `COc1ccc(NC(=O)CN(C)S(=O)(=O)c2cccc3nsnc23)cc1`: 4.86%; `COc1ccc(Cl)cc1NC(=O)N1CCC(CN2CCCCCC2)CC1`: -1.69%; `Cc1ccc(C)c(Nc2nc3nonc3nc2Nc2cccc(C)c2C)c1`: 23.7%. In the case of `CC(C)(C)c1ccccc1OCCCCCNCCO`, the inhibition was active: 50.4%. Next, `CCc1ccccc1NC(=O)C(C)n1nc(-c2ccc(C)c(C)c2)ccc1=O` (stereo not given): -0.424%. Next, `O=C(C1CCN(S(=O)(=O)Cc2ccccc2)CC1)N1CCN(c2ccccc2F)CC1`: -5.55%; `COc1ccc(CNC(=O)CN2C(=O)CSc3ccc(S(=O)(=O)N4CCCC4)cc32)cc1`: 6.31%; `CCCCNC(=O)CN1C(=O)COc2ccc(S(=O)(=O)N3CCCC3)cc21`: 4.61%. Next, `O=C(Nc1ccccc1OCc1cc(=O)n2ccccc2n1)c1ccccc1F`: 3.02%; `CSc1cccc(NC(=O)Cn2cnc(S(=O)(=O)N3CCCC3)c2)c1`: -8.04%. Turning to `CC1=C(C(=O)OCC2CCCCC2)C(c2ccc(Cl)cc2Cl)CC(=O)N1` (stereo not given), the inhibition came out at 10.7%.

On to `O=[N+]([O-])c1ccccc1OCC(O)CN1CCN(CC(O)COc2ccccc2[N+](=O)[O-])CC1` (stereo not given), for which the inhibition was active: 92.4%. Next, `CCCn1c2ccccc2c2cnn(CC(=O)NCc3cc(OC)ccc3OC)c(=O)c21`: 5.11%; `CC(NC(=O)c1ccc2nc(Cc3ccccc3)oc2c1)c1ccccc1` (stereo not given): 12.9%.

Regarding `COc1ccc(-c2cc(C(F)(F)F)nc(SCCC(=O)Nc3cccc(O)c3)n2)cc1`, the inhibition amounted to 6.88%. Next, `CCc1noc(-c2ccc(N(C)Cc3ccc(OC)cc3)c([N+](=O)[O-])c2)n1`: 17.3%. `CCOc1ccc(CCNC(=O)c2sc3ncccc3c2-n2c(C)ccc2C)cc1`: the inhibition is -12.8%. With `Cc1cc(C(=O)N/N=C/c2cn[nH]c2-c2ccccc2)cs1` the figure was active: 30.3%. Next, `CCc1ccc(Nc2cc(C(=O)NCCCN(C)c3ccccc3)c3ccccc3n2)cc1`: 3.55%. With `COc1ccc(OC)c(NC(=O)N2CCC(N3CCN(Cc4ccc(F)cc4)C(=O)C3=O)CC2)c1` the figure was -2.14%. In the case of `COc1ccc(NC(=O)Cn2cc(C(=O)C3CCCCC3)c3ccccc32)cc1`, the inhibition was -1.58%. Next, `Cc1c(Cl)cccc1NC(=O)C(=O)NCC(c1cccnc1)N1CCN(c2ccccc2)CC1` (stereo not given): -8.77%; `CCCN(C(=O)c1sc2nc3n(c(=O)c2c1C)CCCC3)c1ccccc1C`: 8.52%; `Cc1cccc(NC(=O)C2CCN(S(=O)(=O)c3ccc4c(c3)CCCC(=O)N4)CC2)c1`: -2.74%. Next, `CCCNC(=O)C1CCC(Cn2c(=O)c3sccc3n(CC(=O)Nc3ccccc3C)c2=O)CC1` (stereo not given): 19%; `O=C(O)CCc1ccc(-c2cccs2)n1CC(=O)Nc1ccccc1C(F)(F)F`: 11%. With `O=C(CSc1nc(-c2ccccc2)nc2c1CCCC2)c1ccc(Cl)cc1` the figure was 18.2%; with `COc1ccc(Cn2ccc3nc(C)c(C(=O)N4CCN(c5cc(C)ccc5C)CC4)cc3c2=O)cc1`, 6.94%. Take `CCc1cccc(C)c1NC(=O)C(CC)n1ncn2c(cc3cc(C)ccc32)c1=O` (stereo not given): the inhibition is 0.744%. With `Cn1cc(C(F)(F)F)nc1-c1ccc(OCC(O)CNCCOc2ccc(O)c(C(N)=O)c2)cc1` (stereo not given) the figure was active: 71.8%.

Consider `Cc1ccc(S(=O)(=O)c2nc(S(=O)(=O)c3ccc(C)cc3)c(NC(C)C)s2)cc1`, for which the inhibition is 12.6%.

Turning to `COc1cc(Nc2cc(C)nc3ncnn23)cc(OC)c1OC`, the inhibition was active: 31.9%.

Regarding `CCOc1ccc(CNC(=O)c2cnc3sc(N4CCCCCC4)nn3c2=O)cc1OC`, the inhibition came out at 2.59%.

With `Cc1ccc(C)c(NC(=O)Cn2c(=O)n(Cc3ccc4c(c3)OCO4)c(=O)c3ccc(C(=O)NC4CCCCC4)cc32)c1`, the inhibition turned out to be 12.3%. Next, `CC(C)Oc1ccc(C(=O)N2CC(=O)Nc3ccc(F)cc3C2c2ccc(F)cc2)cc1` (stereo not given): -4.85%; `CCOc1ccc(CNC(=O)CN2C(=O)C3CCCCN3c3ccc(C(=O)N4CCCC4)cc32)cc1` (stereo not given): -5.59%. With `CCN1C(=O)c2ccccc2Sc2ccc(C(=O)NCCC(C)C)cc21` the figure was active: 43.8%; with `COc1ccccc1CNC(=O)c1cc2cc(C)ccc2n1C`, 11%.

As to `COc1cc(CNc2ccc3[nH]c(=O)[nH]c3c2)cc(Br)c1OCc1ccc(F)cc1`, the inhibition stood at 15.3%.

On to `CN(C)c1cccc(C(=O)N2CCC(c3ccncc3)CC2)c1`, for which the inhibition stood at 7.32%. With `COCCNc1ncnc2onc(-c3ccc(F)cc3)c12` the figure was 2.97%. With `COc1ccc(OCCSc2nc3ccccc3n2CC(=O)N2CCOCC2)cc1` the figure was -19.1%; with `COc1ccc(NC(=O)CCCc2nnc3n(CCC(C)C)c(=O)c4sccc4n23)cc1Cl`, 1.9%; with `COc1ccc(/C=C/c2onc(C)c2S(=O)(=O)N2CCC(C(=O)N3CCCCC3)CC2)cc1`, -17.2%. With `Cc1ccc(-n2c(SCCC(C)C)nc3sc4c(c3c2=O)CC(C)(C)OC4)cc1` the figure was -9.64%; with `CCOc1ccc(CNC(=O)C2CCN(C(=O)c3sccc3-n3cccc3)CC2)cc1`, 9.39%.

`COc1ccc(-c2cc(C(C)=O)c(C)n2CCC(=O)NC2CCCCC2)cc1`: the inhibition is 7.34%.

With `O=C(CCN1CCCC1Cc1ccccc1)c1ccc2c(c1)OCCO2` (stereo not given), the inhibition is active: 109%.

With `COc1ccccc1CNC(=O)CN1C(=O)c2cccnc2Oc2ccccc21`, the inhibition was -5.98%.

As to `Cc1ccc(-c2noc(CSc3nnc(C)n3-c3ccc(C)cc3)n2)cc1`, the inhibition is 1.05%. With `Cc1ccc(NC(=O)C(Cc2ccccc2)NS(=O)(=O)c2cccs2)cc1Cl` (stereo not given) the figure was 9.51%; with `O=C(CS(=O)(=O)c1nc(-c2ccc(Cl)cc2)cn1-c1ccccc1)Nc1ccc(F)cc1F`, 2.73%. Next, `COc1ccc(NC(=O)CN(C)C(=O)CCSc2ccc(F)cc2)cc1`: active: 33.7%. Next, `CC1(C)Oc2ccc(C(=O)NC3CCCC3)cc2N(CC(=O)NC2CCCCC2)C1=O`: active: 51.9%; `CC(Oc1ccccc1)C(=O)N1CCN(Cc2cc(=O)n3nc(-c4ccccc4Cl)sc3n2)CC1` (stereo not given): -1.16%; `O=C(CCSCc1ccccc1Cl)N1CCN(c2ccc(F)cc2)CC1`: -0.102%. In the case of `CCOC(=O)c1c(C)[nH]c(C)c1S(=O)(=O)NCC(=O)N1CCN(c2cc(Cl)ccc2C)CC1`, the inhibition is -3.38%.

For `CCc1ccc(C(=O)c2cn(CC(=O)Nc3ccc4c(c3)OCCO4)c3ccc(C)cc3c2=O)cc1`, the inhibition was 17.5%.

As to `CC(=O)c1ccc(NC(=O)COc2ccccc2-c2nc(-c3ccccc3)no2)cc1`, the inhibition was -22.5%.

In the case of `COCc1cc(C)nc2sc3c(c12)NC(c1ccccc1C(=O)O)N(c1ccc(OC)cc1)C3=O` (stereo not given), the inhibition was determined as 8.82%. With `O=c1c2c3c(sc2n(Cc2cc(=O)n4ccccc4n2)c(=O)n1-c1ccccc1)CCC3` the figure was 2.56%.

For the compound `Cc1ccc(C)c(NC(=O)c2nnn(CC(=O)Nc3cccc(C)c3C)c2N)c1`, the inhibition worked out at 0.741%. Next, `O=c1cc(CN2CCN(S(=O)(=O)c3ccccc3)CC2)nc2sc(-c3ccccc3Cl)nn12`: -11%; `O=[N+]([O-])c1cc(-c2nc(-c3ccccc3)no2)ccc1NC1CCCC1`: 13.4%.

These data come from PubChem BioAssay AID485344 (National Center for Advancing Translational Sciences (NCATS), 2010).
